Test results reported in paper PMC10243363 (ACS chemical neuroscience, 2022).

Details: 0.1 μM, plus 1 mM UDPGA, first-order kinetics

SMILES: CN(C(=O)/C=C/c1ccoc1)[C@@H]1CC[C@@]2(O)[C@H]3Cc4ccc(O)c5c4[C@@]2(CCN3CC2CC2)[C@H]1O5.Cl [Compound 11, (2E)-N-[6β-17-(Cyclopropylmethyl)-3,14-dihydroxy-4,5α-epoxy-morphinan-6-yl]-3-(3-furanyl)-N-methyl-2-propenamide hydrochloride]
- T1/2 (human liver S9): > 1 h
